# In PubChem BioAssay (Tox21):
# “And” between values parts separate entries of the source, which are not always exact repeats. Identical values can stand only once. Inconclusive means that the source gave no clear call. Such entries were picked first, then a sample of the others. For part of these data: A potency beside an inconclusive call is a rough fit, not a confirmed value. Some structures have more than one record in an assay (separate samples or runs), and their calls can disagree. The source made the active and inactive calls. Unless noted, calls come from the whole dose curve; as a rule, active = well fitted curve in the direction sought with a large enough effect in the repeat runs; inconclusive = weak or mixed curves; inactive = no such curve, though single readings can be large; an effect the other way counts as inactive or inconclusive.
# Experiments:
# [1] = qHTS assay for identifying genotoxic compounds that show differential cytotoxicity against isogenic chicken DT40 cell lines with known DNA damage response pathways - wild type cell line (AID 743012); details: DT40 wild type chicken cells viability, CellTiter-Glo, 40 h; activity change, negative = cytotoxicity: at 68.4 µM (top of the series) unless noted; note: nearly all actives have a fitted effect of over 60% in size; note: potency is the fitted concentration of half-maximal effect; for activity change, negative = cytotoxicity: % is set by controls: 0 for no effect and ±100 for the full control effect
# In short: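 Using parental DT40 (300 cells/well), compounds delivered in DMSO incubate 40 h at 37 C/5% CO2. CellTiter-Glo reagent then stands 30 min at room temperature, and luminescence gives cell viability.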
# [2] = qHTS assay for identifying genotoxic compounds that show differential cytotoxicity against isogenic chicken DT40 cell lines with known DNA damage response pathways - Rev3 mutant cell line (AID 743014); details: chicken DT40 Rev3-/- viability, CellTiter-Glo, 40 h; activity, negative = cytotoxicity: at 68.4 µM (top of the series) unless noted; note: nearly all actives have a fitted effect of over 55% in size; note: potency is the fitted concentration of half-maximal effect
# [3] = target: Androgen receptor (Homo sapiens) (UniProt P10275); assay: qHTS assay to identify small molecule antagonists of the androgen receptor (AR) signaling pathway (AID 743035; active = well fitted inhibition curve with a large enough effect in the signal ratio in the repeat runs, not every such curve was filed as active; inconclusive = weak or mixed curves, or effect the other way; inactive = no such curve, though single readings can be large or run the other way; the % refers to the signal ratio; note: % is set by controls: 0 for no effect and ±100 for the full control effect); details: HEK293 AR-UAS-bla, R1881-stimulated, beta-lactamase FRET, 16 h; activity change, negative = inhibition: at 58.5 µM (top of the series) unless noted
# In short: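 Using qHTS, AR-UAS-bla GripTite HEK293 cells received compound, then R1881, and were cultured 16 h at 37C/5% CO2 before a 2 h room-temperature LiveBLAzer B/G FRET substrate step and fluorescence measurement.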
# [4] = target: Androgen receptor (Homo sapiens) (UniProt P10275); assay: qHTS assay to identify small molecule agonists of the androgen receptor (AR) signaling pathway (AID 743036; active = well fitted activation curve with a large enough effect in the signal ratio in the repeat runs, with a control signal flat, not every such curve was filed as active; inconclusive = weak or mixed curves, or effect the other way; inactive = no such curve, though single readings can be large or run the other way; the % refers to the signal ratio; note: potency is the fitted concentration of half-maximal effect; for activation: % is set by controls: 0 for no effect and ±100 for the full control effect); details: HEK293 AR-UAS-bla GripTite, beta-lactamase FRET ratio, 16 h; activation: at 62.4 µM (top of the series) unless noted
# In short: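 Reporter line: GeneBLAzer AR-UAS-bla-GripTite (HEK293). Steps: plate cells, 4 h rest, add compounds, 16 h at 37C, add LiveBLAzer B/G substrate, 2 h at RT, read fluorescence.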
# [5] = qHTS assay to identify small molecule antagonists of the thyroid receptor (TR) signaling pathway - cell viability counter screen (AID 743064); details: GH3.TRE-Luc viability, CellTiter-Fluor, 24 h; activity change, negative = cytotoxic: at 70.3 µM (top of the series) unless noted; note: nearly all actives have a fitted effect of over 50% in size; note: potency is the fitted concentration of half-maximal effect
# In short: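 Plate GH3.TRE-Luc cells; incubate 4 h at 37 °C; add compound, then T3 to 1 nM final; incubate 23.5 h; add CellTiter-Fluor; incubate 30 min at 37 °C, 5% CO2; read fluorescence.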
# [6] = target: Estrogen receptor (Homo sapiens) (UniProt P03372); assay: qHTS assay to identify small molecule antagonists of the estrogen receptor alpha (ER-alpha) signaling pathway (AID 743069; active = well fitted curve in the direction sought with a large enough effect in the signal ratio in the repeat runs, not every such curve was filed as active; inconclusive = weak or mixed curves, or effect the other way; inactive = no such curve, though single readings can be large or run the other way; the % refers to the signal ratio; note: % is set by controls: 0 for no effect and ±100 for the full control effect); details: HEK293 ER-alpha-UAS-bla, beta-lactamase ratio, antagonist mode; activity, negative = inhibition: at 69.4 µM (top of the series) unless noted
# In short: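 Compound effects are measured against 17beta-estradiol stimulation in HEK293 cells with a UAS-controlled beta-lactamase reporter for ER-alpha. Exposure lasts 18 hr at 37C; LiveBLAzer B/G FRET substrate follows for 2 hr at room temperature.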
# [7] = qHTS assay to identify aromatase inhibitors - cell viability counter screen (AID 743084); details: MCF-7 aro ERE viability, CellTiter-Fluor, 24 h; activity change, negative = cytotoxicity: at 70.3 µM (top of the series);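 note: cells stimulated with testosterone during compound exposure; nearly all actives have a fitted effect of over 55% in size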; note: potency is the fitted concentration of half-maximal effect
# [8] = qHTS assay to identify small molecule antagonists of the thyroid receptor (TR) signaling pathway (AID 743065); note: nearly all actives have a fitted effect of over 55% in size; note: potency is the fitted concentration of half-maximal effect
# In short: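 Antagonism measured as loss of luciferase signal in GH3 cells stably carrying a TRE-luciferase reporter, co-treated with compound and T3 (1 nM final) for 23.5 h at 37 C. Viability was read in the same well by CellTiter-Fluor.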
# [9] = target: Estrogen receptor (Homo sapiens) (UniProt P03372); assay: qHTS assay to identify small molecule agonists of the estrogen receptor alpha (ER-alpha) signaling pathway (AID 743075; calls by dose curve; note: potency is the fitted concentration of half-maximal effect)
# [10] = qHTS assay to identify small molecule antagonists of the estrogen receptor alpha (ER-alpha) signaling pathway - cell viability counter screen (AID 743074; calls by dose curve;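 note: HEK293 cells carrying ER-alpha-UAS-bla reporter stimulated with 17beta-estradiol; potency is the fitted concentration of half-maximal effect; nearly all actives have a fitted effect of over 45% in size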)
# [11] = qHTS assay to identify small molecule antagonists of the estrogen receptor alpha (ER-alpha) signaling pathway using the BG1 cell line - cell viability counter screen (AID 743081);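 note: compound given together with 17beta-estradiol as the ER stimulus; nearly all actives have a fitted effect of over 45% in size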; note: potency is the fitted concentration of half-maximal effect
# [12] = target: Estrogen receptor (Homo sapiens) (UniProt P03372); assay: qHTS assay to identify small molecule agonists of the estrogen receptor alpha (ER-alpha) signaling pathway using the BG1 cell line (AID 743079); details: BG1Luc4E2 cells, ERE-luciferase agonist, 22 h; note: nearly all actives have a fitted effect of over 20% in size; note: potency is the fitted concentration of half-maximal effect
# Aromatase (Homo sapiens) = Aromatase (Homo sapiens) (UniProt P11511); assay: qHTS assay to identify aromatase inhibitors (AID 743083); note: % is set by controls: 0 for no effect and ±100 for the full control effect; nearly all actives have a fitted effect of over 55% in size
# [13] = qHTS assay to identify small molecule antagonists of the estrogen receptor alpha (ER-alpha) signaling pathway using the BG1 cell line (AID 743080; calls by dose curve;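 note: BG1 cells stimulated with 17beta-estradiol alongside compound; % is set by controls: 0 for no effect and ±100 for the full control effect; nearly all actives have a fitted effect of over 25% in size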); details: BG1Luc4E2 ERE-luciferase antagonist mode, luminescence; activity change, negative = inhibition: at 70.3 µM (top of the series) unless noted
# In short: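 Endogenous full-length ER-alpha in BG1-Luc-4E2 cells drives a stably integrated 4×ERE luciferase gene; compounds were tested against 17beta-estradiol over 21.5 h, with luminescence and multiplexed viability fluorescence recorded.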
# [14] = target: Androgen receptor (Homo sapiens) (UniProt P10275); assay: qHTS assay to identify small molecule antagonists of the androgen receptor (AR) signaling pathway using the MDA cell line (AID 743042)
# In short: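 Antagonist mode: compounds plus R1881 agonist added to MDA-kb2 AR-luc cells, incubated 16 h at 37C. Luciferase reporter luminescence quantified, with multiplexed CellTiter-Fluor readout for cell viability.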
# [15] = activation: at 70.3 µM (top of the series) unless noted
# Tags give direction and shape of the fitted curve or compound fluorescence and quenching.
# UniProt P03372, sequence (P03372 whole entry, looked up): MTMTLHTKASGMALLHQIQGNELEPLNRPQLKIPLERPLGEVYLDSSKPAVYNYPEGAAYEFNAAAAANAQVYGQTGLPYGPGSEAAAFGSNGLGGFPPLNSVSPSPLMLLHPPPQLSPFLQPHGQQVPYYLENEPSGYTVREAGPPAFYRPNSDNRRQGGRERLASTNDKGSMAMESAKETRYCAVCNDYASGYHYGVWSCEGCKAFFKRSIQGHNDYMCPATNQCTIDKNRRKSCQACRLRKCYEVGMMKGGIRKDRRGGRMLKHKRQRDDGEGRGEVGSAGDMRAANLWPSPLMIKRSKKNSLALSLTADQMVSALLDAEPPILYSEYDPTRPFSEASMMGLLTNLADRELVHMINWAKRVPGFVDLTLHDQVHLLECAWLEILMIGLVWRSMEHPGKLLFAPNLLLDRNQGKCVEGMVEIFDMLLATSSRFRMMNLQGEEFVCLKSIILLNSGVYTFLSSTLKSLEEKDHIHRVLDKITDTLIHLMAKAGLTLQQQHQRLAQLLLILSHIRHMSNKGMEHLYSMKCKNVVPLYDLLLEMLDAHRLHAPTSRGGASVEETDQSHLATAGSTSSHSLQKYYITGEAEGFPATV
# UniProt P10275, sequence (P10275 whole entry, looked up): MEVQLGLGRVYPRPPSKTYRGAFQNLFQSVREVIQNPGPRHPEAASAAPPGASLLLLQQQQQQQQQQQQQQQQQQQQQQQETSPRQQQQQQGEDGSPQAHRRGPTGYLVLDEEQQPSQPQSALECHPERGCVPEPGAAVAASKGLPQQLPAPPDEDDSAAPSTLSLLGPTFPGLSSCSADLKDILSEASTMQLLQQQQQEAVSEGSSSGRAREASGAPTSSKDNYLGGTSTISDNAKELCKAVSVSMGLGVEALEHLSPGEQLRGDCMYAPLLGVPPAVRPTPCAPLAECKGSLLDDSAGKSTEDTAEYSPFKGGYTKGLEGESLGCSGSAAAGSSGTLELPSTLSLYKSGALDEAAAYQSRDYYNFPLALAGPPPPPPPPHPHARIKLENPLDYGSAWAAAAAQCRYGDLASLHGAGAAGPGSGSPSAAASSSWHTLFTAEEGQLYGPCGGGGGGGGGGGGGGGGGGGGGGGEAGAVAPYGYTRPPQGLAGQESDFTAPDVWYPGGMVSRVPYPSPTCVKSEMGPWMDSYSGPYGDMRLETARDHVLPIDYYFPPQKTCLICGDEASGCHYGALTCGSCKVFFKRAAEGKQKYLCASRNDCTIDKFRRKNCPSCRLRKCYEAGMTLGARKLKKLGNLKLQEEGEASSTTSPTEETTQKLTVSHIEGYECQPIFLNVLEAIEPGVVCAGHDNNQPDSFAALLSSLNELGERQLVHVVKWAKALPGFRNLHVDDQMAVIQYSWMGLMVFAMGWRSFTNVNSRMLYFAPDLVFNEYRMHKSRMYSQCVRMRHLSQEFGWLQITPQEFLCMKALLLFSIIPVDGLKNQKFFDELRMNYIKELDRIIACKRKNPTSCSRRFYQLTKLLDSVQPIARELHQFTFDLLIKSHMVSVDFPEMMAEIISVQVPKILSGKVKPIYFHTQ
# UniProt P11511, sequence (P11511 whole entry, looked up): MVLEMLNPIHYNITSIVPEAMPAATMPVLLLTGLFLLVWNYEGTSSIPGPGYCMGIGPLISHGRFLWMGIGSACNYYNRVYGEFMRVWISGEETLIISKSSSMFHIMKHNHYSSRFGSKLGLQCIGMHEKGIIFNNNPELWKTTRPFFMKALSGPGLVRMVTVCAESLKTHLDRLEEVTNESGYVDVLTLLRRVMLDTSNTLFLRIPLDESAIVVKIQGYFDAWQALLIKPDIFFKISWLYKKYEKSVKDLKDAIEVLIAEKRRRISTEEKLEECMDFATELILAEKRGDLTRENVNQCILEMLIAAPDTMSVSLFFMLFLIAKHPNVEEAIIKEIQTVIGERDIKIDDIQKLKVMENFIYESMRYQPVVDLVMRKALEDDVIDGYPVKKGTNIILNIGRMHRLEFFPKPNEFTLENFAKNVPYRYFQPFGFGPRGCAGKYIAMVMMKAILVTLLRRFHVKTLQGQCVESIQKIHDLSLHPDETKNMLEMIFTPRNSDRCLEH
compound,measurement,setting,value
C=C[Si](OC(C)=O)(OC(C)=O)OC(C)=O,Potency,[1],"inconclusive: 68.6 µM [cytotoxic, single point]"
same,Potency,[2],active: 61.1 µM
same,Potency,[3],inactive
same,Potency,[4],inactive
CC/C=C\CCOC(=O)c1ccccc1O,Potency,[1],inactive
same,Potency,[2],"inconclusive: 48.6 µM [cytotoxic, partial curve, poor fit]"
same,Potency,[5],inactive
same,Potency,[6],inactive
same,Potency,[7],inactive
NC(=O)Nc1ccc(Cl)c(Cl)c1,Potency,[1],"inconclusive: 68.4 µM [cytotoxic, single point]"
same,Potency,[2],active: 60.9 µM
same,Potency,[8],"inconclusive: 68.4 µM [inhibitor, single point]"
FC1(F)C(F)(F)C(F)(F)C2(F)C(F)(F)C(F)(F)C(F)(F)C(F)(F)C2(F)C1(F)F (configuration not stated),Potency,[1],"inconclusive: 33.5 µM [cytotoxic, single point]"
same,Potency,[2],"inconclusive: 33.5 µM [cytotoxic, single point]"
same,Potency,[8],inactive
same,Potency,[9],inactive
COc1cc(S(=O)(=O)Nc2ccccc2)c(OC)cc1N,Potency,[1],"inconclusive: 68.6 µM [cytotoxic, single point]"
same,Potency,[2],"inconclusive: 61.1 µM [cytotoxic, single point]"
same,Potency,[10],"inconclusive: 2.45 µM [rising, full curve, poor fit]"
same,Potency,[11],inactive
Cc1cc(O)cc(C)c1Cl,Potency,[1],"inactive and inconclusive: 68.6 µM [cytotoxic, single point]"
same,Potency,[2],inactive
same,Potency,[5],inactive
same,Potency,[10],"inconclusive: 19 µM [rising, single point]"
Cc1cc(CC(=O)O)n(C)c1C(=O)c1ccc(Cl)cc1,Potency,[1],inactive
same,Potency,[2],"inconclusive: 13.3 µM [rising, partial curve, poor fit]"
same,Potency,[5],"inconclusive: 3.35 µM [rising, single point]"
COC(=O)c1sccc1S(N)(=O)=O,Potency,[1],"inconclusive: 19.3 µM [rising, partial curve, poor fit]"
same,Potency,[2],"inconclusive: 68.6 µM [cytotoxic, single point]"
same,Potency,[12]; [15],inactive
Clc1cc(Cl)c(Cl)cc1Cl,Potency,[1],"inconclusive: 68.6 µM [cytotoxic, single point]"
same,"activity, negative = cytotoxicity",[2],inconclusive: -30.9% [cytotoxic]
same,Potency,[10],"inconclusive: 35.2 µM [cytotoxic, partial curve]"
same,Potency,[9],"inconclusive: 55.8 µM [activator, single point]"
same,Potency,Aromatase (Homo sapiens),inactive
CCCCCC/C=C/CCCCCCCC(=O)O,Potency,[1],"inconclusive: 307 nM [cytotoxic, partial curve, poor fit] and inactive"
same,Potency,[2],"inconclusive: 17.2 µM [rising, partial curve, poor fit]"
same,Potency,[5],"inconclusive: 27.3 µM [rising, single point]"
same,"activity change, negative = cytotoxic",[5],inconclusive: 11%
same,Potency,[10],"inconclusive: 4.36 µM [cytotoxic, full curve, poor fit]"
Cc1ncc(COP(=O)(O)O)c(C=O)c1O,Potency,[1],"inconclusive: 18.8 µM [rising, partial curve, poor fit]"
same,Potency,[2],"inconclusive: 29.8 µM [rising, partial curve, poor fit]"
same,Potency,[5],inactive
same,Potency,[10],"inconclusive: 26.8 µM [rising, single point]"
same,Potency,[7],"inconclusive: 33.5 µM [cytotoxic, partial curve, poor fit]"
O=Cc1ccc([N+](=O)[O-])cc1,Potency,[1],"inconclusive: 77.4 µM [cytotoxic, single point]"
same,Potency,[2],"inconclusive: 69 µM [cytotoxic, single point]"
same,Potency,[12]; [15],active: 30.8 µM
same,Potency,[13],inactive
CCOCC(O)COc1ccc(NC(=O)CC[S+](C)C)cc1 (configuration not stated),Potency,[1],"inconclusive: 33.5 µM [rising, partial curve, poor fit]"
same,Potency,[2],"inconclusive: 15 µM [rising, partial curve, poor fit]"
same,Potency,[6],inactive
C[C@@H]1[C@H](O)[C@@H](C)/C=C/C=C\C=C\C=C\C=C\C=C\C=C\[C@H](O[C@@H]2O[C@H](C)[C@@H](O)[C@H](N)[C@@H]2O)C[C@@H]2O[C@](O)(C[C@@H](O)C[C@@H](O)[C@H](O)CC[C@@H](O)C[C@@H](O)CC(=O)O[C@H]1C)C[C@H](O)[C@H]2C(=O)O (stereo in doubt),"activity change, negative = cytotoxicity",[1],inconclusive: -7.32%
same,Potency,[2],inconclusive: 68.6 µM [cytotoxic]
same,Potency,[6],inactive
same,Potency,[10],"inconclusive: 55 µM [cytotoxic, single point]"
same,activation,[12]; [15],inconclusive: -17.7% [phenotype inactive]
same,activation,[12]; at 70.3 µM (top of the series),inactive: 1.4%
same,Potency,[11],inconclusive: 61.1 µM [cytotoxic]
same,Potency,[7],active: 34.4 µM
O=C(Oc1ccccc1)c1ccc2ccccc2c1O,Potency,[1],"inconclusive: 68.6 µM [cytotoxic, single point]"
same,Potency,[2],active: 54.5 µM
same,Potency,[8],"inconclusive: 68.6 µM [inhibitor, single point]"
same,Potency,[6],inactive
same,activation,[12]; [15],inconclusive: 10.8% [phenotype inactive]
CCOc1cccc(-n2cc(C(=O)N3CCN(c4cc(C(=O)O)c5ccccc5c4)CC3)nc2-c2ccc(C)cc2)c1,Potency,[1],"inconclusive: 65.5 µM [cytotoxic, single point]"
same,Potency,[2],"inconclusive: 65.5 µM [cytotoxic, single point]"
same,Potency,[4],"inconclusive: 6.6 µM [fluorescent, full curve, poor fit]"
same,Potency,[14],"inconclusive: 73.5 µM [inhibitor, single point]"
same,Potency,[5],"inconclusive: 73.5 µM [cytotoxic, single point]"
same,Potency,[8],"inconclusive: 65.5 µM [inhibitor, single point]"
same,Potency,[10],"inconclusive: 58.8 µM [cytotoxic, single point]"
